± gives the standard deviation of the averaged measurements. This is one part of the list.

This assay concerns PfAP2-EXP AP2 domain (GST-tagged). Nature of the assay: gcPBM binding intensity (ln(normalized median fluorescence intensity)); higher = stronger DNA binding. An outline of the steps:
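GST-tagged P. falciparum DNA-binding domains produced in E. coli were incubated for 1 h on an Agilent 4 × 180k array of primer-extended double-stranded 36-bp intergenic genomic probes with negative controls. Binding intensity is the highest Masliner-normalised natural-log median intensity across replicate spots of either probe orientation, with bound protein detected by Alexa488 anti-GST antibody at 488 nm.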
Take “TTTTTTTTTTGCACGTGTACATAAAAATATATATAT [XGTACX_site3116]”: the “gcPBM binding intensity (ln)” value was found to be 9.26 ± 0.13.

For the sequence “TTTTTGTAATGACACACACACAAACAGAAAAAATAA [CACACA_site7062]”, the “gcPBM binding intensity (ln)” value was determined as 8.81 ± 0.48. For “TTATATATTTTGATTGCACACAGAATTTAAATCATG [CACACA_site8735]” the value was 8.44 ± 0.31; for “ATAAAATAAAGGAAAAATATTAAGTTTTAAGAAAAT [CACACA_negctrl_site1066]”, 8.51 ± 0.36. For “ATATTTAAGATTTAATCACACACATATATATTATAT [CACACA_site8946]” the value was 8.38 ± 0.37. As to “ATATATGTGCTAAAATGTACATAGTATAATATATTT [XGTACX_site1949]”, the “gcPBM binding intensity (ln)” value is 8.73 ± 0.34.

With “TTTAATCATTTTAGCTTACACACAAAATTTTGTTAT [CACACA_site2938]”, the “gcPBM binding intensity (ln)” value stood at 9.16 ± 0.69.

“AATATTTATATTTACACACACATAATACCTATATGT [CACACA_site6167]”: the “gcPBM binding intensity (ln)” value is 8.47 ± 0.35.

Regarding “TAGATACATAAAAGTGGTACATATATATATATATAT [XGTACX_site6263]”, the “gcPBM binding intensity (ln)” value amounted to 10.1 ± 0.52. For the sequence “TGGAAATTCTCAGGAGTGCATATTTGCAGTTTACGT [GTGCAC_site9768]”, the “gcPBM binding intensity (ln)” value worked out at 8.66 ± 0.27.

Turning to “TTTGTTGACGGACACACACACATACAGATATATATA [CACACA_site5292]”, the “gcPBM binding intensity (ln)” value was found to be 8.84 ± 0.39.

Take “ATGGTTAAAAAAAGCATACACACTATCCTCTTTGCT [CACACA_site2552]”: the “gcPBM binding intensity (ln)” value worked out at 8.53 ± 0.44.

Turning to “ATAATAAATTATTATGTACACACATAATAGTATATA [CACACA_site8538]”, the “gcPBM binding intensity (ln)” value stood at 8.45 ± 0.33.

Take “CCGTTGAACATATATGCACACACATAAAATAAAAAA [CACACA_site8761]”: the “gcPBM binding intensity (ln)” value was 8.66 ± 0.42. For “ATATTTTTTTTTTTTTGTACATATATCATTATATAT [XGTACX_site866]” the value was 8.76 ± 0.38; for “TGGTTACTGTCATTAGTTATTTCTTGTTGACAATTA [CACACA_negctrl_site416]”, 8.57 ± 0.47. For “TTTTTGTCTGCATACGCACACACGTGTACCATCTTA [CACACA_site1173]”, the “gcPBM binding intensity (ln)” value worked out at 9.47 ± 0.41. Consider “GGTATAAAGAAATTTTGTACATATTTCTCCCTTTAA [XGTACX_site1874]”, for which the “gcPBM binding intensity (ln)” value was 8.47 ± 0.37. Regarding “AAAAAAAAAAAACACACACACACACTAATATATAAA [CACACA_site8302]”, the “gcPBM binding intensity (ln)” value stood at 8.47 ± 0.56.

Regarding “CGCATACACGGACACACACACACATATATATATATA [CACACA_site4520]”, the “gcPBM binding intensity (ln)” value was found to be 10.1 ± 0.34. For “TAATATATAAGAAACAAAAAAAAATAAAAATATATA [TGCATGCA_negctrl_site153]” the value was 8.6 ± 0.42. For “TAAAATAATTCGTAACGTACATATGTAATATAATAT [XGTACX_site6126]” the value was 8.99 ± 0.47; for “CCTTTATATTATAAAAGTACATAATATTTTATAAGT [XGTACX_site1629]”, 8.3 ± 0.16; for “TAAATATATATCATCACACACACATACATAAATATA [CACACA_site183]”, 8.74 ± 0.52. “AGCTCTATATTTTACACATGCGATTTGGATATATAT [TGCATGCA_site105]”: the “gcPBM binding intensity (ln)” value was 8.8 ± 0.31. Take “ATATTACAACGTAACGAATATTTCATAAATTCTTAA [CACACA_negctrl_site770]”: the “gcPBM binding intensity (ln)” value turned out to be 8.1 ± 0.32. As for “TTATATAGATGGAATAGTACAGTATATATATATATA [XGTACX_site8755]”, the “gcPBM binding intensity (ln)” value stood at 10 ± 0.11. For “ATTTCTCAATCGTAATGTACAAAAAAAAGGAAAAAA [XGTACX_site1193]” the value was 8.57 ± 0.57. In the case of “ATATTATTAATATATTGTACTTTTTTTTTTTTATTT [XGTACX_site496]”, the “gcPBM binding intensity (ln)” value stood at 8.49 ± 0.38.

In the case of “ATATGTATTTAATTCACACAAAAATATGTTCATGAA [CACACA_site5223]”, the “gcPBM binding intensity (ln)” value was 8.29 ± 0.4. Turning to “CACATTATGTATCATACACACAAATAAATATATAAT [CACACA_site4505]”, the “gcPBM binding intensity (ln)” value turned out to be 8.62 ± 0.37. For “TATAAAAATAATATTACACACATGTAAAATGCCCGT [CACACA_site7522]”, the “gcPBM binding intensity (ln)” value stood at 8.49 ± 0.31. For the sequence “TTTTTTTTGTATTTTTCACACACTCTCTATCTCTCT [CACACA_site8655]”, the “gcPBM binding intensity (ln)” value was 8.94 ± 0.45. Consider TGAAAATAATTATAGGTGCATAAACATACGGATCTT, for which the “gcPBM binding intensity (ln)” value is 9.07 ± 0.099. On to “ATATATTAATAATAAATTAAAAGGAGTAACATTTTC [CACACA_negctrl_site320]”, for which the “gcPBM binding intensity (ln)” value was found to be 8.46 ± 0.38.

Take “ATATTTTATTTTCCATGTACACAAAAAAAAAAAAAA [XGTACX_site8327]”: the “gcPBM binding intensity (ln)” value came out at 8.48 ± 0.4. For the sequence “AATTTAATTATGGTAACACACAATAAAAAAAAATCT [CACACA_site568]”, the “gcPBM binding intensity (ln)” value stood at 8.46 ± 0.36. With “TTTTTTTTTTTCTTTGCACACAGATAACTTGAAATT [CACACA_site2184]”, the “gcPBM binding intensity (ln)” value was 8.58 ± 0.44. With “AGGTTAAAAATAAATACACACATTTTATGGGTGTAT [CACACA_site4702]”, the “gcPBM binding intensity (ln)” value is 8.06 ± 0.28. Consider “AAGAAAATAAAGGATATGAAAAATAAAAAAAAGGAG [TGCATGCA_negctrl_site265]”, for which the “gcPBM binding intensity (ln)” value was 9.21 ± 0.28. As to “ATATATTATATGTACACACACATATAAGGGATTATA [CACACA_site5]”, the “gcPBM binding intensity (ln)” value is 8.61 ± 0.085. For “TATAAATATATATATACACACACATACACAAAAAAA [CACACA_site9191]”, the “gcPBM binding intensity (ln)” value was determined as 8.96 ± 0.54. As for “AAAAATATGAAGACACAATATAGAAATAAAAATATA [XGTACX_negctrl_site244]”, the “gcPBM binding intensity (ln)” value came to 8.68 ± 0.44. With “TATTACTTGATATATACACACATATAACATAAATGC [CACACA_site7783]”, the “gcPBM binding intensity (ln)” value came to 8.37 ± 0.49.

The values above are taken from the supplement of paper PMC11417369.
